Among the data in PubChem BioAssay AID463173 (ICCB-Longwood Screening Facility, Harvard Medical School, 2010) are survival values, retold here.

SMILES strings stand for the structures. Hit rate of the full screen: of about 52,000 compounds, about 1,700 (3.3%) were called active. Rule as the data show it: active = survival mostly below about 52% (no sharp cut-off); inactive = mostly above about 56%. The list shows a part of the results.

This test deals with Wild type. Briefly: S. aureus survival, RN4220 and DeltatarO strains – OD600, teichoic acid synthesis inhibitors, primary screen (AID 463173). The following applies: S. aureus RN4220 wild type/DeltatarO growth, OD600, 18 h, stronger effect = lower value, screened at 18.75 µg/mL (by protocol).
As to `Cc1cc(OC(C)C(=O)N(Cc2ccco2)Cc2ccccc2F)cc(C)c1Cl` (stereo not given), the survival is inactive: 84%.

For the molecule `COc1ccc(-c2cc(C(=O)Oc3cccc(C)c3)c3ccccc3n2)cc1`, the survival was active: 3%.

Consider `Cc1ccc(CCNC(=O)C2CCN(c3nnc(C)c4c(C)n(-c5ccccc5)nc34)CC2)cc1`, for which the survival was inactive: 70%.

As to `Cc1ccc(NC(=O)CSCc2cnn(-c3ccccc3)c2-n2cccc2)c(C)c1`, the survival was inactive: 106%.

Take `CCOc1cccc2sc(N(Cc3cccnc3)C(=O)C3CCCCC3)nc12`: the survival is inactive: 81%.

Consider `CCc1ccccc1NC(=O)c1ccc(F)c(S(=O)(=O)NC2CCCCCC2)c1`, for which the survival is inactive: 51%.

Regarding `Cc1ccc(NC(=O)CSc2nc3ccccc3c3nc(CCn4cncc4C)nn23)cc1F`, the survival was inactive: 69%.

For the molecule `Cc1ccc(C)c(N2CCN(CCCNC(=O)C3COc4ccccc4C3)CC2)c1` (stereo not given), the survival was inactive: 82%.

Turning to `O=C(Nc1ccccc1)Nc1ccc2c(c1)C(=O)OC2`, the survival is inactive: 112%.

Regarding `CN1CCN(C(c2ccccc2Cl)c2sc3nc(-c4ccco4)nn3c2O)CC1` (stereo not given), the survival was inactive: 129%.

As to `CCC(=O)N1CCc2cc(Br)cc(S(=O)(=O)N3CCN(c4ccc(C(C)=O)cc4)CC3)c21`, the survival is inactive: 63%.

For the molecule `Cc1nc(N)sc1C(C)(C)C`, the survival was inactive: 105%.

With `Cc1cccc(NC(=O)c2ccc(C(=O)Nc3cccc(C)c3C)cc2)c1C`, the survival was inactive: 67%.

With `Cc1nnc(NC(=O)CSc2ncccn2)s1`, the survival is inactive: 102%.

Take `COc1ccc(C(=O)Nc2ccc3c(c2)N(C)C(=O)c2ccccc2S3)cc1OC`: the survival is inactive: 75%.

With `CCOC(=O)c1cnc2c(C)cc(C)cc2c1Nc1ccc(N2CCOCC2)cc1`, the survival was inactive: 15%.

As for `Cc1ccc(-n2nc(C)c(C(=O)NCCCN3CCN(c4ccccc4F)CC3)c2-n2cccc2)cc1`, the survival was inactive: 129%.

With `CCCOc1ccccc1C(=O)Nc1nc2c(s1)CCCC2`, the survival was inactive: 120%.

`CN(Cc1ccccc1)C(=O)c1ccc2c(c1)N(Cc1ccc(Cl)cc1)C(=O)c1ccccc1S2=O` (stereo not given): the survival was inactive: 97%.

For `Cc1oc(-c2ccc(Cl)cc2)nc1CN1CCCC(C(=O)NCc2ccc(Cl)cc2)C1` (stereo not given), the survival is inactive: 85%.

With `CC(C)c1ccc(NC(=O)CSC2=Nc3ccccc3C3=NC(CC(=O)NCc4ccco4)C(=O)N23)cc1` (stereo not given), the survival is inactive: 72%.

As to `O=c1c2ccccc2n2c(-c3cccc(F)c3)nnc2n1Cc1ccccc1`, the survival was inactive: 90%.

Regarding `COc1cccc(NS(=O)(=O)c2ccc3[nH]cc(C(=O)N(C)Cc4ccco4)c(=O)c3c2)c1`, the survival was inactive: 84%.

Regarding `CCc1ccccc1N1CC(c2nc3ccccc3n2CCC2CCCCC2)CC1=O` (stereo not given), the survival was active: 25%.

As for `CCOC(=O)N1CCN(C(=O)c2cnn(-c3cccc(C)c3)c2-n2cccc2)CC1`, the survival is inactive: 87%.

As to `COc1ccc(OC)c(NC(=O)c2cc3c(=O)n4cccc(C)c4nc3n2C)c1`, the survival was inactive: 83%.

Regarding `Cc1cc(SCCOc2ccccc2)nc(N)n1`, the survival was inactive: 91%.

For `CN(C)c1ccc(-c2nc3ccccn3c2Nc2ccc3c(c2)OCCO3)cc1`, the survival is inactive: 88%.

`Cc1cccc(N2CCN(C(=O)c3c4c(nc5ccccc35)C(=O)N(C3CCCCC3)C4)CC2)c1C`: the survival is inactive: 128%.

As to `Cc1ccc(N(C)C(=O)c2noc3c2CCCCC3)cc1C`, the survival was inactive: 73%.

With `Cc1ccc(CC(=O)NCc2nc(-c3cccc(C)c3)no2)cc1`, the survival is inactive: 93%.

As to `Cc1cccc(C)c1OCc1cc(=O)n2ccsc2n1`, the survival was inactive: 81%.

`CC(=O)Nc1ccc(S(=O)(=O)NC(=O)CC(C)C)cc1`: the survival was inactive: 108%.

Regarding `COc1cc(OC)c(NC(=O)C(C)n2nc(-c3ccc(C)c(C)c3)ccc2=O)cc1Cl` (stereo not given), the survival was inactive: 61%.

In the case of `COc1cc(OC)cc(C(=O)Nc2ccc(O)c(-c3nc4cc(C)c(C)cc4o3)c2)c1`, the survival is inactive: 98%.

`COc1cccc(NC(=O)CSc2nnc(NC(=O)NC3CCCCC3)s2)c1`: the survival is inactive: 63%.

As to `COc1cccc(C(=O)c2cn(CC(=O)Nc3cccc(Cl)c3C)c3nc(C)ccc3c2=O)c1`, the survival was inactive: 74%.

`O=C(Cn1c(=O)c2sccc2n(CC(=O)Nc2ccc(Cl)cc2Cl)c1=O)NCCc1ccccc1`: the survival is inactive: 106%.

Regarding `Cc1ccc(NC(=O)N2CCc3c([nH]c4ccccc34)C2c2ccccc2F)c(Cl)c1` (stereo not given), the survival is inactive: 82%.

As for `CCCN1Cc2cccc(C(=O)Nc3ccc(OC)cc3OC)c2C1=O`, the survival is inactive: 87%.

For `COCCN1C(=O)c2oc3ccc(C)cc3c(=O)c2C1c1ccc(C(=O)OC)cc1` (stereo not given), the survival is inactive: 73%.

For `CSc1ncc(C(=O)NCc2cccc(Br)c2)c(-c2ccccc2)n1`, the survival is inactive: 77%.

As to `O=C(CSc1nc(-c2ccccc2)cc(=O)[nH]1)Nc1ccccc1`, the survival is inactive: 102%.

With `O=C(NCc1ccccc1F)C(=O)NCC(c1ccco1)S(=O)(=O)c1ccccc1` (stereo not given), the survival was active: -6%.

Take `Cc1ccc(C)c(NS(=O)(=O)c2ccc3c(c2)CCCN3C(=O)C2CCC2)c1`: the survival was inactive: 94%.

`Cc1ccc(C(C)C)c(OCC(=O)Nc2ccc(-c3nc4ncccc4o3)cc2C)c1`: the survival was inactive: 69%.

Regarding `COC(=O)c1c(NC(=O)CCCOc2ccccc2C)sc2c1CCC2`, the survival is active: 4%.

Consider `O=C(NCCCO)c1ccc(CSc2nc3ccccc3c(=O)[nH]2)cc1`, for which the survival was inactive: 105%.

As to `COc1ccc(CNS(=O)(=O)c2ccc3c(c2)C(C)(C)C(=O)N3C)cc1OC`, the survival is inactive: 64%.

For `COc1ccc(C(C(=O)NCc2ccccc2)N(C(=O)Cn2nnc3ccccc32)c2ccc(OC)cc2)cc1` (stereo not given), the survival was inactive: 95%.

For `COC(=O)c1ccc2c(c1)n(CCO)c(C)[n+]2CCO`, the survival is inactive: 97%.

Turning to `Cc1ccc(CCNC(=O)c2ccc(CNS(=O)(=O)c3ccc(F)cc3)cc2)cc1`, the survival is inactive: 72%.

Consider `COC(=O)c1cc2sc(Cl)cc2n1Cc1nc(-c2ccccc2F)oc1C`, for which the survival was inactive: 122%.

Take `Cc1cccc(N2CCN(C(=O)c3cccc(-n4c(C)nc5cccnc54)c3)CC2C)c1` (stereo not given): the survival is inactive: 74%.

For `Cc1c(C(=O)Nc2ccccc2Cl)oc2ccc(S(=O)(=O)N3CCCCCC3)cc12`, the survival is inactive: 83%.

Turning to `COC(=O)COc1ccc(S(=O)(=O)N2CCCCC2)cc1C`, the survival was inactive: 117%.

Turning to `CCOC(=O)C1=C(CS(=O)(=O)c2ccc(F)c(C)c2)NC(=O)NC1c1ccc(F)c(F)c1` (stereo not given), the survival was inactive: 92%.

Consider `CC(=O)N1CCc2c(sc(NC(=O)CSc3ccc(C)cc3)c2-c2nc3ccccc3s2)C1`, for which the survival is inactive: 76%.

In the case of `Cc1cc(C)c2c(n1)SCC(=O)N2CC(=O)Nc1c(C)cccc1C`, the survival is inactive: 79%.

In the case of `Cc1cc(C)cc(NC(=O)Nc2c[nH]c(=O)[nH]c2=O)c1`, the survival was inactive: 79%.

As to `CCn1c(CN2CCC(C)CC2)nc2cc(NC(=O)c3cccc([N+](=O)[O-])c3)ccc21`, the survival is inactive: 85%.

Consider `COc1ccc(OC)c(CCNc2ncnc3onc(C)c23)c1`, for which the survival was inactive: 153%.

`CC(=O)Nc1nnc(C(C)C)s1`: the survival was inactive: 103%.

For the molecule `O=C(NC1(C(F)(F)F)N=C(c2ccccc2)N(C2CCCCC2)C1=O)c1ccccc1F` (stereo not given), the survival is inactive: 70%.

In the case of `COc1ccc(NS(=O)(=O)c2cc3c4c(c2)CC(=O)N4CCC3)cc1Cl`, the survival is inactive: 82%.

As to `CCS(=O)(=O)N1CCN(c2nc(C)nc3sc4c(c23)CCC(C)C4)CC1` (stereo not given), the survival was inactive: 96%.

Consider `COc1ccc(-c2noc(CSc3nnc(-c4ccncc4)n3-c3cccc(C)c3)n2)cc1OC`, for which the survival is inactive: 87%.

With `COc1ccccc1NC(=O)Cn1c(SCC(=O)NCc2ccccc2)nc2ccccc21`, the survival was inactive: 67%.

`Cc1cc(C)cc(NC(=O)NCC2CCN(Cc3cc(C)ccc3C)CC2)c1`: the survival was inactive: 83%.

Consider `CC(=O)Nc1ccc(-c2nnc3n(CC(C)C)c(=O)c4ccccc4n23)cc1`, for which the survival is inactive: 88%.

In the case of `Cc1ccc(-c2cc(-c3coc4ccccc4c3=O)c3c(n2)-c2cc(Cl)ccc2OC3)cc1`, the survival is inactive: 80%.

Take `COc1ccc(NC(=O)c2oc3ccc4c(c3c2C)C(=O)CC(C)(C)O4)cc1OC`: the survival is inactive: 86%.

Regarding `CC1CCN(C(C(=O)O)c2ccccc2)CC1` (stereo not given), the survival was inactive: 97%.

On to `CCc1ccc(OCC2c3cc(OC)c(OC)cc3CCN2C(=O)Cc2ccc(OC)c(OC)c2)cc1` (stereo not given), for which the survival was inactive: 81%.

As for `COc1cc2c(cc1NC(=O)C(C)Oc1ccc(Cl)cc1Cl)oc1ccccc12` (stereo not given), the survival was inactive: 49%.

Take `COc1ccc(CCC(=O)NCCc2csc(-c3cccc(F)c3)n2)cc1`: the survival was inactive: 68%.

For the molecule `COc1ccc(NC(=O)CCCN2C(=O)C(c3ccccc3)Oc3cccnc32)cc1OC` (stereo not given), the survival is inactive: 90%.

As for `COc1cc(-c2nnc(SCC(=O)N(C)C3CCCCC3)o2)cc(OC)c1OC`, the survival was inactive: 85%.

For the molecule `Cc1ccc(CCNC(=O)CCCn2nc(C)c3c(C)n(-c4ccc(C)cc4)nc3c2=O)cc1`, the survival was inactive: 110%.

As to `Cc1ccc(OCC(=O)OCc2cc(=O)n3nc(C4CCCCC4)sc3n2)cc1`, the survival is inactive: 129%.

On to `CCN(c1ncnc2c1c(-c1ccccc1)cn2-c1ccccc1)C1CCCCC1`, for which the survival was inactive: 72%.

Take `Cc1cc(N2CCN(C)CC2)nc2ccc(NC(=O)Nc3ccccc3Cl)cc12`: the survival was inactive: 72%.

Consider `CCNc1c(NC(=O)c2ccccc2OCC)c(=O)oc2ccccc12`, for which the survival was inactive: 90%.

Take `CSCCC(NC(=O)C1CCCCC1)C(=O)Nc1ccc(F)c(Cl)c1` (stereo not given): the survival was inactive: 69%.

On to `COc1ccc(N(C(=O)c2ccccc2C)S(=O)(=O)c2ccc3c(c2)n(C)c(=O)n3C)cc1`, for which the survival was inactive: 67%.

For the molecule `Cc1nc(N2CC(C)OC(C)C2)c2nnn(Cc3c(F)cccc3Cl)c2n1` (stereo not given), the survival was inactive: 101%.

As for `CCOc1ccccc1NS(=O)(=O)c1c(C(=O)OC)sc2cccc(F)c12`, the survival was active: -3%.

Consider `COc1ccc(OC)c(CCNC(=O)c2sc3nc4n(c(=O)c3c2C)CCCC4)c1`, for which the survival was inactive: 76%.

As to `COc1ccc(N2CCN(S(C)(=O)=O)CC2)cc1`, the survival is inactive: 100%.

For `COc1ccc(C(=O)CC(=O)c2ccccc2O)cc1`, the survival is inactive: 107%.
